Hit rate of the full screen: of about 46,000 compounds, about 60 (0.1%) were called active. Another 3% or so got no clear call; they are omitted. Calls come from the whole dose curve; as a rule, active = well fitted inhibition curve with a large enough effect; inconclusive = small, poorly fitted or top-dose-only effect; inactive = no such curve, though single readings can be large or run the other way. This is one part of the list.
Assay: Primary qHTS assay for Inhibitors of ovarian cancer metastasis using an organotypic tumor microenvironment (TME) model.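 For activity change, negative = inhibition: plate controls were DMSO wells for no effect and tomatine positive control wells for full effect.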 Note: nearly all actives have a fitted effect of over 65% in size.
Details: SKOV3ip1-GFP adhesion/invasion on 3D omental model, fluorescence; series mostly up to 45.8 µM; activity change, negative = inhibition: at the top concentration
Summary of the method: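 A 3D layer of primary human omental fibroblasts, mesothelial cells, fibronectin and collagen I, grown 48 hr, received SKOV3ip1-GFP cells in serum-free medium plus compounds at 0.36-46 umol/L. After 2 hr RT and 16 hr 37 C, fixed adherent GFP cells were counted; normalized to DMSO and tomatine.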

Compound	outcome	activity change, negative = inhibition
Cc1ccc(C(=O)n2nc(C)c(S(=O)(=O)N3CCOCC3)c2C)cc1	inactive	–
CCCNc1ncnc2onc(C)c12	–	inactive: 1.46%
CCOc1ccc(NC(=O)NCCCN2CCN(c3ccc(F)cc3)CC2)cc1	inactive	–
Cc1cccc(N2CCN(c3cc(C)nc4c(-c5ccc(Cl)cc5)c(C)nn34)CC2C)c1 (stereo not drawn)	–	inactive: -9.69%
Cc1nnc(SCc2ccc(Cl)cc2)c2cc3occc3n12	–	inactive: -1.26%
CC(=O)N1CCCc2cc(S(=O)(=O)N(C)CC(=O)Nc3ccc(C)cc3C)ccc21	–	inactive: 0.396%
CC1CCN(c2nn3c(=O)c(C(=O)NCc4ccc(Cl)cc4)cnc3s2)CC1	–	inactive: 3.76%
COc1ccc(CCN(C)CCCC(C#N)(c2ccc(OC)c(OC)c2)C(C)C)cc1OC (stereo not drawn)	–	inactive: -9.23% [at 92.2 µM]
Cc1noc(Cn2c(=O)c3ccccc3n(CC(=O)Nc3cccc(Cl)c3C)c2=O)n1	–	inactive: 1.58%
N#Cc1nc(/C=C/c2ccc(F)cc2)oc1N1CCN(c2ccccc2)CC1	inactive	–
Cc1ccc(CNc2nc3ccccc3n3c(C)nnc23)cc1	–	inactive: 1.27%
CCCn1c2ccccc2c2cnn(CC(=O)N3CCC(C(=O)OCC)CC3)c(=O)c21	–	inactive: 2.55%
Cc1ccccc1-n1cc(-c2ccccc2)nc1SCC(=O)Nc1ccc(F)cc1	–	inactive: -19.9%
COc1ccc(-n2c(=O)c3c4c(sc3n(Cc3cc(C)ccc3C)c2=O)CN(C(C)=O)CC4)c(OC)c1	–	inactive: 0.205%
COc1cccc(C2c3c(oc4ccc(C)cc4c3=O)C(=O)N2CCCN2CCOCC2)c1OC (stereo not drawn)	–	inactive: -4%
O=C(Nc1cccc(NC(=O)c2ccc(Br)o2)c1)c1ccccc1	–	inactive: 3.62%
O=C(NCCN1CCN(c2ccccc2)CC1)Nc1ccccc1Br	–	inactive: 5.15%
Cc1ccc(Sc2c(C)nn(C(=O)COc3ccc(F)cc3)c2C)cc1	–	inactive: -3.34%
COc1ccc(C2C(=O)N(C3CCC(C)CC3)CC(=O)N2Cc2ccccc2Cl)cc1OC (stereo not drawn)	–	inactive: 5.3%
Cc1cc2oc(=O)c(CC(=O)O)c(C)c2c2occ(-c3ccc(F)cc3)c12	–	inactive: 4.41%
Cc1cccc(CNC(=O)C2CCN(c3nnc(-n4c(C)ccc4C)s3)CC2)c1	–	inactive: 3.47%
Cc1ccc(N2CC(NC(=O)c3ccc(S(=O)(=O)N4CCOCC4)cc3)CC2=O)cc1C (stereo not drawn)	–	inactive: -11.4%
COc1ccc(CCNC(=O)CCCn2c(=O)c3ccccc3n(Cc3ccc(F)cc3Cl)c2=O)cc1OC	inactive	–
Cn1c(C(=O)NCCc2ccccc2)cc2c(=O)n3ccccc3nc21	inactive	–
Cc1cccc(-c2noc(CN(C(=O)c3ccccc3Cl)C(C)C)n2)c1	–	inactive: -8.65%

Compound	outcome	activity change, negative = inhibition
O=C(c1ccc2c(c1)OCCO2)N(Cc1cccnc1)c1nc2c(F)cccc2s1	–	inactive: 3.36%
COc1ccc(CNC(=O)CCc2c(C)nn(-c3ccc(N4CCCCC4)nn3)c2C)c(OC)c1	inactive	–
Cc1ccc2c(c1)c1c(c(=O)n(Cc3ccccc3)c(=O)n1Cc1cccc(C(F)(F)F)c1)n2C	–	inactive: 65.2%
O=C(c1cnc(N2CCCCC2)c2ccccc12)N1CCN(c2ccccc2F)CC1	inactive	–
CCCSc1oc(-c2cccs2)nc1S(=O)(=O)c1ccc(Cl)cc1	–	inactive: -6.66%
Cc1ccc(CNc2nc3ccccc3c3nc(-c4cccc(C)c4)nn23)cc1	–	inactive: 3.05%
COc1ccc(Cn2c(CNS(=O)(=O)c3ccc4c(c3)CCCC4)nc3cccnc32)cc1	–	inactive: -4.3%
O=C(NCCc1ccc(Cl)cc1)c1ccc(Cn2c(=O)c3cccn3c3cccnc32)cc1	–	inactive: -35.4%
CC1CCCN(Cc2cn3c(-c4cccc(Br)c4)nnc3s2)C1 (stereo not drawn)	–	inactive: 13%
CCCc1cc(=O)[nH]c(=S)[nH]1	–	inactive: -3.17%
CCOc1ccc(C(=O)NCCc2sc3nc(-c4ccc(Cl)cc4)nn3c2C)cc1OCC	inactive	–
O=C(CSC1=Nc2ccccc2N=C(c2ccc(F)cc2)C1)NCc1ccccc1	–	inactive: -4.59%
CC(=O)N1CCc2cc(CNS(=O)(=O)c3ccc(Br)s3)ccc21	inactive	–
c1csc(C2=NC(c3ccncc3)=Nc3ccccc3N2)c1	–	inactive: -6.01%
Cc1ccc2oc(-c3ccc(C)c(NC(=O)c4ccc(C(C)(C)C)cc4)c3)nc2c1	inactive	–
COc1cccc(CNC(=O)c2nn(-c3ccccc3Cl)nc2CO)c1	inactive	–
Cc1ccccc1C(=O)NCc1nc2cccnc2n1Cc1ccccc1	–	inactive: 41.9%
CC(C(=O)Nc1cc(C(F)(F)F)ccc1Cl)n1nnc2sc3c(c2c1=O)CCCC3 (stereo not drawn)	–	inactive: 4.3%
COc1ccccc1C(=O)n1nc(-c2ccco2)nc1NCc1ccc(Cl)cc1	–	inactive: -20.4%
CCOc1ccccc1C(=O)Oc1c(Sc2ccccc2)c(C)nn1C(C)(C)C	–	inactive: 3.13%
COc1ccc(S(=O)(=O)c2c(Nc3ccc(F)cc3)sc(C(=O)c3ccc4c(c3)OCO4)c2N)cc1	–	inactive: -1.57%
CCN1CCN(C(c2ccccc2)c2sc3nc(-c4ccco4)nn3c2O)CC1 (stereo not drawn)	–	inactive: 1.32%
Cc1ccc(-c2csc(=Nc3ccccc3)n2Cc2ccc3c(c2)OCO3)cc1C	–	inactive: 2.19%
COCCc1nn2c(=O)cc(COC(=O)COc3ccc(F)cc3)nc2s1	–	inactive: 2.22%
COc1ccccc1NC(=O)c1c(NCc2ccc(C)o2)sc2c1CCC(C)C2 (stereo not drawn)	–	inactive: -4.15%

Compound	outcome	activity change, negative = inhibition
CCCOC(=O)c1c(NC(=O)C2c3ccccc3Oc3ccccc32)sc2c1CCC(C)C2 (stereo not drawn)	–	inactive: -2.86%
CCC(O)c1cc2c(cc1NC(=O)c1cccc(Br)c1)OCCO2 (stereo not drawn)	inactive	–
COc1ccc(NC(=O)Cn2cnc3sc(C)c(S(=O)(=O)N4CCN(C)CC4)c3c2=O)cc1Cl	inactive	–
CCCSc1ncc(Cl)c(C(=O)N(Cc2ccc(N(C)C)cc2)C2CCS(=O)(=O)C2)n1 (stereo not drawn)	–	inactive: -7.54%
N#Cc1nc(-c2ccc(COc3ccccc3)o2)oc1NCc1ccccc1	–	inactive: 5.42%
O=C(CN1C(=O)CCc2cc(S(=O)(=O)N3CCOCC3)ccc21)Nc1cccc(Cl)c1	inactive	–
Cc1ccc(CNC(=O)CSc2nc(=O)[nH]c3c2CCCC3)cc1	–	inactive: -6.46%
CN(C)CCCN(C(=O)c1cccs1)c1nc2ccc(F)cc2s1	–	inactive: 1.48%
CC(C)C12CN3CC(C(C)C)(CN(C1)C3c1ccc(Cl)cc1)C2=O (stereo not drawn)	–	inactive: -7.52%
COc1ccc(-c2nc3ccccc3o2)cc1NC(=O)C(C)Oc1ccc(Cl)cc1Cl (stereo not drawn)	–	inactive: -5.65%
Cc1nc2ccccc2n1CCc1nc2c3ccccc3nc(SCC(=O)Nc3ccc(Br)cc3F)n2n1	–	inactive: 11.5%
O=C(O)[C@H](Cc1c[nH]c2ccccc12)N1C(=O)c2ccccc2C1=O	–	inactive: -4.68% [at 92.2 µM]
CN1CCN(c2oc(-c3ccc(COc4ccc(Cl)cc4)o3)nc2C#N)CC1	–	inactive: 3.31%
Cc1ccccc1-n1c(/C=C/c2c(C)n(C)c3ccccc23)nc2ccccc2c1=O	–	inactive: -6.84%
CC(C)(C)OC(=O)N1CCC(c2c(C(=O)N3CCN(c4ncccn4)CC3)cnn2-c2ccccc2)CC1	–	inactive: -4.84%
Cc1cccc(OC(=O)c2cc(-c3ccc4c(c3)OCCO4)on2)c1	inactive	–
Cc1ccc(NS(=O)(=O)c2ccc3c(c2)NC(=O)CCS3)cc1C	inactive	–
CCOC(=O)CNC(=O)N1CCc2cc(S(=O)(=O)N3CCC(C)CC3)ccc21	inactive	–
CNC(=O)C1CCC(Cn2c(=O)[nH]c3ccsc3c2=O)CC1 (stereo not drawn)	inactive	–
CCOC(=O)c1ccc(N2C(=O)c3n[nH]c(C)c3C2c2ccc(C(C)(C)C)cc2)cc1 (stereo not drawn)	inactive	–
CCOC(=O)c1ccc(NC(=O)COCc2cc(-c3ccc4c(c3)OCO4)on2)cc1	–	inactive: -0.837%
CCN(CC)S(=O)(=O)c1ccc(C(=O)Nc2nc3c(Cl)cc(Cl)cc3s2)cc1	inactive	–
CSc1ccc(CNc2ncc(-c3ccccc3)n2C)cc1	–	inactive: -3.54%
CCOC(=O)c1cccc(NC(=O)c2cc(CN3CCOCC3)on2)c1	–	inactive: -19.8%
CC(=O)Nc1c(C)nn(-c2ccccc2)c1N1CCC(C(=O)Nc2ccc(F)cc2Cl)CC1	–	inactive: -12.8%

Compound	outcome	activity change, negative = inhibition
Cc1cccc(NC(=O)N2CCC(CN3CCC(C)CC3)CC2)c1C	–	inactive: -3.44%
Cc1ccccc1CNC(=O)C1CCN(c2nnc(-n3c(C)ccc3C)s2)CC1	inactive	–
COc1ccc2c(c1)c(=O)c(S(=O)(=O)c1ccc(Cl)cc1)cn2C	–	inactive: 0.872%
CCOC(=O)c1cccc(NC(=O)c2cc3cc4ccc(C)cc4nc3o2)c1	inactive	–
CCCn1c(SCc2nc(-c3cc(OC)ccc3OC)no2)nnc1-c1ccc(Cl)cc1	–	inactive: 14.6%
Cc1ccc2c(c1)C(c1ccccc1)N(C(=O)c1ccccc1F)CC(=O)N2 (stereo not drawn)	–	inactive: 3.66%
CCOC(=O)c1c(C)[nH]c(C)c1S(=O)(=O)N1CCCC(C(=O)Nc2ccccc2OCC)C1 (stereo not drawn)	–	inactive: 75.4%
CCc1cccc(CC)c1NC(=O)C(CC)n1nc(C)n2c(cc3cc(C)ccc32)c1=O (stereo not drawn)	inactive	–
CCCc1ccc(OC(C)C(=O)Nc2sc3c(c2C(=O)OC)CCCCC3)cc1 (stereo not drawn)	–	inactive: 4.61%
CC1CCN(S(=O)(=O)c2ccc3c(c2)oc(=O)n3CC(=O)NC(C)c2ccccc2)CC1 (stereo not drawn)	–	inactive: 2.51%
Cc1ccc(-c2nc(CS(=O)(=O)CC(=O)N3CCN(c4cccc(C)c4C)CC3)c(C)o2)cc1	–	inactive: -0.411%
COc1ccc(Br)cc1CNC(=O)CSc1cc(=O)n(C)c2ccccc12	inactive	–
Cc1ccccc1-c1noc(-c2cc3ccccc3oc2=O)n1	inactive	–
Cc1ccc(-n2ncc(C(=O)Nc3ccc4c(c3)OCCO4)c2C2CCN(C(=O)OC(C)(C)C)CC2)cc1	inactive	–
CCN1CCN(c2csc3ccc(C)cc3c2=O)CC1	–	inactive: 2%
Cc1cccc(CNC(=O)c2cccc(NC(=O)N3CCSc4ncccc43)c2)c1	inactive	–
CCCCNC(=O)c1nn(-c2ccc(C)cc2)c(=O)c2c1c1ccccc1n2C	–	inactive: 6.54%
CCOC(=O)c1cnc2ccc(OC)cc2c1NCCc1ccc(OC)c(OC)c1	–	inactive: 6.28%
Cn1c(SCC(=O)N2CCCc3ccccc32)ncc(C(=O)Nc2ccc(F)cc2)c1=O	–	inactive: -22.2%
CNc1c(NC(=O)c2cc(OC)cc(OC)c2)c(=O)oc2ccccc12	–	inactive: -40.5%
CSc1nc(Nc2cccc(C)c2)c(C#N)c(-c2ccccc2)n1	–	inactive: -5.51%
COc1cc(NC(=O)c2ccc(-c3nc(COc4ccccc4)c(C)o3)cc2)cc(OC)c1	–	inactive: -8.19%
CCOC(=O)N1CCC(NC(=O)c2ccc3c(c2)N(Cc2ccccc2)C(=O)c2ccccc2S3=O)CC1 (stereo not drawn)	inactive	–
